Screen size: about 150,000 compounds; about 540 (0.36%) showed an effect of 50% or more. Some of the results follow.

For this test, the system named is Plasmodium falciparum. Nature of the test: Primary screen in NF54 nanoGlo assay, in single point, at 2uM, 72h; a lower Z score goes with more inhibition. The test is classed as functional, Erythrocyte. The note with it: timepoint 72 hour.
Consider `Cc1ccc(OCC2CCN(C(=O)c3cnn(-c4ccccc4)n3)CC2)nn1`, for which the “% Inhibition” value is -3% and the Z score was 0.32.

Regarding `Cn1cc(NC(=O)[C@@H]2CCCN2c2ncnc3sccc23)cn1`, the “% Inhibition” value is reported as -1% and the Z score is given as 0.11.

In the case of `Cc1cc(CN2CCCC2)cc(-c2cc(F)cc3c2O[C@@H](CN)C3)c1`, the “% Inhibition” value is listed as -10% and the Z score came out at 1.34.

For `CNC(=O)[C@H]1CN(C(=O)Nc2cc(C)ccc2C)CC12CCCC2`, the “% Inhibition” value is given as -4% and the Z score was 0.44.

Consider `COCc1cc(=O)n(CC(=O)NCc2ccc(F)cc2)c(N2CCCC2)n1`, for which the “% Inhibition” value is given as 2% and the Z score was -0.26.

As for `Cc1ncc(C(=O)N2C[C@@H]3C[C@H](N(C)C)CN3C(=O)[C@@H]2CC(C)C)cn1`, the “% Inhibition” value was -3% and the Z score is 0.59.

Take `COc1ccccc1NC(=O)CNC(=O)C1OC2OC(C)(C)OC2C2OC(C)(C)OC12` (configuration not stated): the “% Inhibition” value came out at 1% and the Z score was -0.17.

On to `CCOC(=O)c1cn(-c2nc(C)cc(C)n2)nn1`, for which the “% Inhibition” value was -15% and the Z score turned out to be 2.93.

With `CNC(=O)CCCNc1nc2c(s1)c(C)nn2C`, the “% Inhibition” value is on record as -18% and the Z score amounted to 1.91.

With `Cc1nc2cc(NC(=O)[C@H]3CC34CCN(Cc3cc(F)cc(F)c3)CC4)ccc2s1`, the “% Inhibition” value was found to be 3% and the Z score is recorded as -0.38.

On to `O=C(NC[C@H]1CCN(Cc2ccncc2Cl)C1)C(=O)c1ccco1`, for which the “% Inhibition” value was found to be 9% and the Z score is -0.98.

Consider `O=C(O)c1ccc2c(c1)CCN2S(=O)(=O)c1cnn(C2CCCC2)c1`, for which the “% Inhibition” value is 32% and the Z score is on record as -3.64.

In the case of `Cc1ccc(-c2ccccc2)n1-c1ccc2c(c1)OCO2`, the “% Inhibition” value is -10% and the Z score was 1.33.

Consider `COc1ccccc1CNC(=O)C1CCC(Cn2c(=O)[nH]c3ccsc3c2=O)CC1` (configuration not stated), for which the “% Inhibition” value was -9% and the Z score amounted to 0.92.

Turning to `O=C(NCCn1nc(C(F)(F)F)cc1C1CC1)C1CCC1`, the “% Inhibition” value was 6% and the Z score was -0.95.

Regarding `O[C@@H](CNCc1ccccc1)c1ccsc1`, the “% Inhibition” value is on record as -2% and the Z score was found to be 0.2.

In the case of `O=C1OCCC1N1CCOC(c2nccs2)C1` (configuration not stated), the “% Inhibition” value was -7% and the Z score stood at 1.01.

`CN1CCN(CCOc2ccc(NC(=O)c3coc(C4CCC4)n3)cc2)CC1`: the “% Inhibition” value is on record as -16% and the Z score came out at 2.45.

For `COc1ccc(Cc2noc(C3CC4CCC3O4)n2)cc1OC` (configuration not stated), the “% Inhibition” value is -7% and the Z score is 1.33.

With `C=CCNC(=O)c1ccc(N(C)C[C@H](O)c2ccc(F)cc2)nc1`, the “% Inhibition” value is recorded as 4% and the Z score is listed as -0.52.

`O=C(COc1ccccc1)N1CCOC[C@H](Oc2ccc(C(F)(F)F)cc2)C1`: the “% Inhibition” value was 19% and the Z score is -2.25.

Regarding `CC[C@@H](CNS(C)(=O)=O)Nc1cnccn1`, the “% Inhibition” value was -5% and the Z score worked out at 0.67.

As to `O=C1[C@H]2C(Cc3c[nH]c4ccccc34)N[C@@]3(C(=O)Nc4ccc(F)cc43)[C@H]2C(=O)N1CC1CCCO1` (some centres not stated), the “% Inhibition” value is given as 39% and the Z score is listed as -5.09.

In the case of `Cc1ccc(CNC(=O)[C@@H]2Cn3cccc3C(=O)N2)o1`, the “% Inhibition” value is listed as -2% and the Z score is 0.29.

As for `CC(=O)c1nc2ccccc2n1CC(=O)Nc1nn(C)c2nc(C)cc(C)c12`, the “% Inhibition” value is reported as 11% and the Z score was -1.06.

As for `Cc1ccc(Cl)cc1CNC(=O)N(C)CCO`, the “% Inhibition” value came to 6% and the Z score is on record as -0.87.

As for `CCCC12CCC(C(=O)Oc3ccc(OCC)c(C#N)c3C#N)(CC1)CC2`, the “% Inhibition” value is reported as -43% and the Z score stood at 5.01.

Take `COc1ccc(OC)c(C(=O)N(Cc2cc3cccc(C)c3nc2N(C)C)C[C@H]2CCCO2)c1`: the “% Inhibition” value is on record as -2% and the Z score turned out to be 0.46.

As to `COc1cc(CNc2ccc3c(c2)CCNC3=O)ccc1C`, the “% Inhibition” value is given as -7% and the Z score was determined as 1.36.

As to `COCc1nc(C(=O)OCCc2cnn(C)c2)cs1`, the “% Inhibition” value is on record as 0% and the Z score is recorded as -0.02.

As to `COc1cc2c(cc1CN1CCC[C@H](NC(C)=O)C1)OCCCO2`, the “% Inhibition” value turned out to be 12% and the Z score is given as -1.6.

As to `COCCC(=O)N1CCC2(CC1)C[C@@H](c1ccccc1)C(=O)N(C)C2`, the “% Inhibition” value is reported as 4% and the Z score is -0.78.

Turning to `O=C(Nc1nc(-c2ccc3c(c2)OCCO3)cs1)c1ccncc1`, the “% Inhibition” value was -5% and the Z score amounted to 0.84.

Turning to `Cn1c(C(=O)N(C[C@H]2CCOC2)c2ccccc2)cc2ccccc21`, the “% Inhibition” value is -7% and the Z score was 1.22.

On to `CCN(CC)CCCN[C@@H](C)C(=O)N1c2ccc(Cl)cc2NC(=O)c2ccccc21`, for which the “% Inhibition” value was -15% and the Z score is recorded as 1.75.

Take `CCn1ncc(CN(C)Cc2nnc(C)s2)c1C`: the “% Inhibition” value worked out at 4% and the Z score was -0.62.

With `O=C1CCCN1c1ccc(CNc2nc(=O)c3cn[nH]c3[nH]2)cc1`, the “% Inhibition” value is given as 9% and the Z score is -1.17.

Regarding `Cn1cncc1CC(=O)Nc1ccnc(NC(=O)OC(C)(C)C)c1`, the “% Inhibition” value came to 94% and the Z score was -14.52.

Consider `CN1CCN(c2cc(C(=O)N3CC[C@H](Cc4ccc(F)cc4)C3)ccn2)CC1`, for which the “% Inhibition” value turned out to be 4% and the Z score is -0.5.

As for `CC1CCN([C@@H]2[C@H](O)[C@H](CO)O[C@@H]2CN(Cc2ccc(F)cc2)Cc2ccc(F)cc2)CC1`, the “% Inhibition” value is -3% and the Z score is recorded as 0.52.

In the case of `CCN1CCN(c2nc3ncn(CC(=O)Nc4ccc(OC)c(Cl)c4)c(=O)c3s2)CC1`, the “% Inhibition” value is -8% and the Z score is on record as 1.33.
